# Source: the supplement of paper PMC4166925
# ± gives the standard deviation of the averaged measurements. The full ranking holds about 33,000 sequences; the median of “E-score (dimensionless, -0.5 to 0.5)” is about -0.046, and the highest 2% start at about 0.36. The list shows a part of the results.
# System: T1, SpTbr T-box DNA-binding domain (GST fusion)
# T1 sequence: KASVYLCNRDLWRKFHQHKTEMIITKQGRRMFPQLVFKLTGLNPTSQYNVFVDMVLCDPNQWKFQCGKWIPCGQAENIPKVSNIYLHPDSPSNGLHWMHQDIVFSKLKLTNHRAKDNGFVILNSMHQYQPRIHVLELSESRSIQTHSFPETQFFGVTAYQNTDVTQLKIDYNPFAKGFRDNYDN
# Assay: PBM E-score of 8-mer (E-score (dimensionless, -0.5 to 0.5)); Tbr is Tbrain of the sea star Patiria miniata (Pm) or the sea urchin Strongylocentrotus purpuratus (Sp); higher = stronger binding preference; most listed sequences are background and not binding sites
# Conditions: the construct has about 5 more residues each side
# In short: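 Primer extension turned Universal Agilent oligonucleotide arrays double-stranded. They were incubated with 200 nM protein in PBS (pH 7.5); the protein was a GST-fused Tbr T-box DNA-binding domain expressed in BL21 E. coli at 20 °C and purified on glutathione. Every ungapped 8-mer was scored from the scanned, quantified probe intensities, and the Universal PBM Analysis Suite gave each an enrichment E-score averaged over duplicate arrays.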
row,Sequence,PBM E-score of 8-mer
1,AATCTATC,-0.0426 ± 0.025
2,AACTGGAT,0.0369 ± 0.034
3,AATACTCC,-0.0546 ± 0.014
4,CAGTGCCC,-0.187 ± 0.014
5,CGTCGGGC,0.0868 ± 0.09
6,GAACTAAC,0.135 ± 0.023
7,CTTATCCC,-0.0931 ± 0.015
8,CCTTTCCA,-0.129 ± 0.034
9,GCCTCTAA,-0.0401 ± 0.018
10,CGATAACC,0.197 ± 0.017
11,GGTCAGAC,-0.274 ± 0.051
12,ATCCATCA,-0.143 ± 0.065
13,GGCGAGAC,0.18 ± 0.042
14,ATTTTGTC,0.0877 ± 0.0066
15,CAGTCGAA,-0.236 ± 0.075
16,AAGTTATT,-0.245 ± 0.016
17,ACGCTAAA,0.114 ± 0.0078
18,GGCCATCA,-0.148 ± 0.037
19,ACCTTCAT,0.2 ± 0.012
20,GATCTGAA,-0.123 ± 0.0013
21,ATAAAGTG,0.203 ± 0.0045
22,CCTAGGAA,-0.263 ± 0.033
23,GATGTCTA,-0.225 ± 0.0015
24,AATGGAAT,-0.316 ± 0.032
25,CCTTTACG,-0.21 ± 0.027

row,Sequence,PBM E-score of 8-mer
1,CTGAAGCC,-0.315 ± 0.046
2,CTGACTCA,0.0267 ± 0.052
3,CAGTACGC,-0.2006 ± 0.00062
4,CAATGTGG,0.0647 ± 0.085
5,ACTAGATA,-0.105 ± 0.0032
6,ATAGTTTC,-0.108 ± 0.012
7,AACGGCAT,-0.156 ± 0.018
8,ACAACAGT,0.141 ± 0.014
9,CAGATGAC,-0.0314 ± 0.026
10,ACTCAAAC,-0.162 ± 0.094
11,GACTTACC,-0.0974 ± 0.05
12,CTCAGCGC,0.047 ± 0.0037
13,GGGGGGTA,-0.28 ± 0.013
14,AACAATTG,0.248 ± 0.036
15,GGCCCCCA,-0.287 ± 0.099
16,CTACTAGC,0.00751 ± 0.031
17,ACGACCCC,-0.0644 ± 0.023
18,GATGCTGA,-0.105 ± 0.029
19,ACGGAAAG,-0.141 ± 0.019
20,GACGCTAC,0.152 ± 0.0046
21,CTTACCAA,-0.114 ± 0.011
22,CTATACCC,-0.116 ± 0.055
23,TGTCACAA,0.297 ± 0.024
24,ACTAACCT,-0.0493 ± 0.065
25,CGGACGAG,-0.251 ± 0.053

row,Sequence,PBM E-score of 8-mer
1,AATGAATA,-0.127 ± 0.03
2,GTACCGCA,-0.0877 ± 0.037
3,CCAACACG,0.232 ± 0.013
4,GCCTGTCC,-0.197 ± 0.0094
5,TCTTCACA,0.395 ± 0.015
6,CGCACAAC,0.185 ± 0.049
7,ATCTCCGA,-0.275 ± 0.016
8,ATGAAGCC,-0.199 ± 0.023
9,GTGATATA,0.16 ± 0.011
10,CACCTAGC,0.40555 ± 0.00015
11,ACTGAGTC,-0.0511 ± 0.064
12,GGCCGCGA,0.198 ± 0.12
13,AGGAATTG,-0.0973 ± 0.0076
14,CCGAGTAG,-0.197 ± 0.044
15,ATCCCGGG,-0.0384 ± 0.033
16,CAGCTGAA,-0.0943 ± 0.019
17,AGTACCCA,-0.09716 ± 0.00044
18,CTGCTCCC,-0.017 ± 0.0026
19,TCCTTAAA,-0.212 ± 0.074
20,AAAAGCTA,-0.128 ± 0.061
21,ATAAAGTA,-0.123 ± 0.08
22,CACCCTCA,0.231 ± 0.047
23,GGGTTTTA,-0.234 ± 0.057
24,ACGCCCGG,0.147 ± 0.045
25,CGGGGCTA,-0.315 ± 0.0072

row,Sequence,PBM E-score of 8-mer
1,AAGTCTTG,0.133 ± 0.013
2,CTTTACTC,0.0468 ± 0.055
3,CATACATG,-0.142 ± 0.011
4,GGGCGCGA,0.422 ± 0.031
5,CTCCAAGC,0.00859 ± 0.0076
6,AGAGGAAG,-0.159 ± 0.013
7,CAGCCTCC,-0.239 ± 0.021
8,ATGTTACG,0.116 ± 0.025
9,ACTCGCAA,0.258 ± 0.018
10,AAATCACG,0.197 ± 0.038
11,CCCTCAGC,-0.157 ± 0.023
12,CCCGCGGC,0.0336 ± 0.044
13,GGCCTCAA,-0.198 ± 0.061
14,AGCCCCGG,-0.443 ± 0.074
15,GATCAACA,0.175 ± 0.013
16,CGTGAGAC,0.2491 ± 0.0021
17,AAACCTGG,0.0197 ± 0.059
18,CACGAGCA,-0.0317 ± 0.036
19,TCCGCAGA,-0.202 ± 0.046
20,ATCCGCGC,0.267 ± 0.032
21,AATCTCGG,-0.104 ± 0.036
22,GTAAGACA,-0.047 ± 0.0024
23,TATTTAAA,-0.0758 ± 0.063
24,AATTGCAC,0.23 ± 0.07
25,AGTTCCAA,-0.125 ± 0.032

row,Sequence,PBM E-score of 8-mer
1,GGGACCGA,-0.208 ± 0.055
2,GGTATTAC,-0.132 ± 0.05
3,CGTACTGC,-0.117 ± 0.052
4,AATACCCA,-0.179 ± 0.047
5,AAACAAGG,-0.07 ± 0.073
6,CATTGGGG,-0.0924 ± 0.024
7,CAGGGTTC,-0.0176 ± 0.035
8,ATCCATTC,-0.137 ± 0.018
9,AAAGCGAA,-0.0892 ± 0.0045
10,AGTCTAGG,-0.211 ± 0.11
11,AGGGGCAA,-0.0853 ± 0.061
12,AAGTGATG,0.237 ± 0.02
13,AGTGTTGA,0.351 ± 0.006
14,GCACCGAA,-0.0295 ± 0.034
15,AATTCGAG,-0.045 ± 0.00036
16,CCATTTAA,-0.0291 ± 0.0095
17,ATCCTTGG,-0.231 ± 0.11
18,AGAAAAAA,-0.0087 ± 0.017
19,CACTCAGC,0.0954 ± 0.064
20,ACTTCTCG,0.214 ± 0.0043
21,AACTCGTC,0.134 ± 0.019
22,AAGTTGAG,0.0359 ± 0.094
23,GGATTCGA,-0.13 ± 0.018
24,AAGACTGT,-0.188 ± 0.056
25,CAGGTCGA,0.1155 ± 0.00032

row,Sequence,PBM E-score of 8-mer
1,ACGAAACC,-0.0634 ± 0.12
2,CGCGATGC,0.116 ± 0.016
3,CTTCTCCA,-0.157 ± 0.023
4,CATATCGG,-0.153 ± 0.049
5,AGTTCCCA,-0.0324 ± 0.023
6,ACAGGTGA,0.373 ± 0.0074
7,AGGGTCCG,-0.136 ± 0.015
8,CAGGACGC,-0.0113 ± 0.052
9,TGTGTCAA,0.398 ± 0.011
10,CAAATATA,-0.222 ± 0.045
11,CAGGGGGC,-0.114 ± 0.056
12,AGCGGTAG,0.0117 ± 0.066
13,GCCCGCGA,0.0846 ± 0.054
14,GTCCTGGA,-0.341 ± 0.011
15,AAAATCGG,-0.22 ± 0.0073
16,ACCTGTAT,0.126 ± 0.014
17,CCGCGTTC,-0.0537 ± 0.041
18,GACGATGA,0.0245 ± 0.045
19,GAAAAATC,0.143 ± 0.015
20,GACGTTTA,-0.121 ± 0.009
21,CTGTCTAC,0.0474 ± 0.092
22,ACTGGCCG,0.0362 ± 0.019
23,AGGATGTA,-0.156 ± 0.0079
24,ATAGAAGC,-0.319 ± 0.016
25,CGTAGAAC,-0.15 ± 0.0061

row,Sequence,PBM E-score of 8-mer
1,AACTCACC,0.0474 ± 0.0032
2,ACAATCTC,0.191 ± 0.02
3,GTTTGAGA,-0.103 ± 0.031
4,CAGTACCG,-0.144 ± 0.0067
5,TAAGCAAA,-0.0444 ± 0.065
6,GCAACGGA,-0.0911 ± 0.046
7,GAGCAGCC,-0.1533 ± 0.00017
8,GTATGTCA,0.124 ± 0.013
9,CCTGCTAA,0.269 ± 0.031
10,GCGCACCA,0.00307 ± 0.052
11,AGCCGTAA,-0.0458 ± 0.035
12,TCTAAACA,-0.0194 ± 0.033
13,ACTCTTCC,0.0238 ± 0.049
14,AACACTGG,-0.0384 ± 0.018
15,CGATGGAA,0.0114 ± 0.05
16,ACAGCCAG,-0.0422 ± 0.015
17,ATTCATCA,0.0642 ± 0.0052
18,GAAGACCA,-0.0319 ± 0.069
19,ATAAGAGC,-0.19 ± 0.022
20,GAGTAGAA,-0.279 ± 0.06
21,CGGAAGGC,-0.106 ± 0.0021
22,ACGCGGCC,-0.0719 ± 0.013
